# This is one part of the list.
# System: T1, C. trachomatis L2/434/Bu expressing GFP (CTL2-GFP)
# T1 construct: L2/434/Bu GFP intracellular growth in HeLa cells
# Design: species or system HeLa; C. trachomatis total inclusion area by high-content imaging, normalised to DMSO
# Settings: total inclusion area; 28.5 h, 10 µM; inhibitor
# In short: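 Imaging read-out: GFP inclusions and Hoechst nuclei captured by high-content imaging after fixation. Inclusion area/number = chlamydial growth; nuclei count = host cell viability. MIC calculated per earlier method.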
row,SMILES,% of control remaining
1,O=C(N[C@H]1CCN2C(=O)[C@H]3CCCN3C(=O)[C@@H]2C1)c1cccs1 [CBK289538],117.631
2,O=C(Nc1ccc2[nH]ccc2c1)N1CCCC(CO)C1 (centres unmarked) [CBK156044],105.451
3,N#Cc1ccc(C(=O)Nc2ccc3n(c2=O)C[C@H]2C[C@@H]3CN(C(=O)c3ccccc3)C2)cc1 [CBK289073],94.5261
4,O=C(COC(=O)c1ccccc1NC(=O)c1ccccc1)c1ccc2ccccc2c1 [CBK265491],90.3786
5,CC1CCCN(CC(C)(C)NC(=O)c2ccnn2C(F)F)C1 (centres unmarked) [CBK282099],101.814
6,O=S(=O)(NCc1cccnc1)N1CCOCC1 [CBK269945],103.92
7,COc1ccc(F)c(CN2CCC3(CCCNC3=O)CC2)c1 [CBK284827],75.3792
8,CCCCn1nc(C2CC2)nc1-c1cnn2cc(C)cnc12 [CBK306683],62.6081
9,C[C@H](Nc1cncc(-c2cccc(CO)c2)n1)c1ccccc1 [CBK065512],145.165
10,CC(C)c1noc(C(C)N2CCN(Cc3noc(C(C)(C)C)n3)CC2)n1 (centres unmarked) [CBK305202],67.9262
11,COc1ccc2c(c1)C1(CC(=O)N(Cc3ccccc3)C1=O)C(=O)N2CC(=O)O (centres unmarked) [CBK076108],103.256
12,CNC(=O)C1(Cc2ccccc2-c2ccccc2)CCN(C(=O)Cc2cccc(C)c2)CC1 [CBK285594],111.5
13,O=C(NCC1CCCN1)c1cnn(-c2ccc(Cl)cc2)c1C(F)(F)F (centres unmarked) [CBK115925C],99.454
14,C[C@@H]1CN(C(=O)c2cn(C)c3ccccc23)C[C@H](C)O1 [CBK200235],103.276
15,C=CCN1CCc2cc(-c3cncn3CC(=O)NC(C)(C)C)ccc21 [CBK281923],108.202
16,O=[N+]([O-])c1ccc(S(=O)(=O)NCCSCc2ccco2)cc1 [CBK267503],81.4391
17,CS(=O)(=O)c1ccc(-c2c[nH]c([C@@H]3COCCN3Cc3c[nH]c4ccccc34)n2)cc1 [CBK289321],118.669
18,CC(=O)N1C[C@@H]2C[C@H](C1)c1ccc(NS(=O)(=O)c3cccc(F)c3)c(=O)n1C2 [CBK288710],74.2045
19,COc1ccc(-n2cc(-c3cccc(C(F)(F)F)c3)nn2)cc1OC [CBK112933],80.8355
20,CCOc1cc(C)c(-c2cc(N)[nH]n2)cc1OCC [CBK288216],96.6697
21,O=C(/C=C/c1ccc([N+](=O)[O-])cc1)Nc1ccc(O)cc1C(=O)O [CBK263613],106.29
22,COc1ccc(NS(=O)(=O)c2ccc(NC(=S)NC(=O)C(C)(C)C)cc2)cc1 [CBK268990],51.4833
23,COc1ccc(OCCNC(=O)C2(c3ccc(OC)cc3)CC2)cc1 [CBK149821],46.3529
24,CN(C)CCN(C)[C@H]1CCCC[C@@H]1N(C)C(=O)Cc1ccc(Br)cc1 [CBK023819C],44.5299
25,Oc1c(C(Nc2cccnc2)c2ccccc2OCc2ccccc2)ccc2cccnc12 (centres unmarked) [CBK268587],27.0592
26,O=C(Nc1nnc(C2=COCCO2)o1)c1ccc(Cl)cc1Cl [CBK287419],74.7566

row,SMILES,% of control remaining
1,CCOc1ccsc1C(=O)N1CCc2ccccc2C1 [CBK200339],104.809
2,COc1ccccc1OCc1ccc(C(=O)N2CCN(c3cccc(C(F)(F)F)c3)CC2)o1 [CBK074417],74.7772
3,O=C(NCCN1CCCC1)c1ccc(N2CCN(C(=O)c3ccccc3C(F)(F)F)CC2)nn1 [CBK153217],71.232
4,Cc1cc(C)n(CC(C)CNC(=O)Cc2csc(C(C)(C)C)n2)n1 (centres unmarked) [CBK305340],37.2532
5,COc1cc2c(cc1-c1cn(CCN3CCCOC3=O)nn1)CCC2 [CBK306515],63.9441
6,COc1cc(/C=N\Nc2nnc3c(n2)[nH]c2c(C)cccc23)cc(Br)c1O [CBK262375],100.061
7,CCNC1(Cc2cc(C(=O)N3CCCCC3)on2)COC1 [CBK289671],100.651
8,Cc1ccc(NC(=O)c2cnc3sc(C)cn3c2=O)cc1 [CBK287711],91.6788
9,CC(NC(=O)C1CCN(CCn2cnc3c2c(=O)n(C)c(=O)n3C)CC1)c1ccccc1 (centres unmarked) [CBK148624],107.425
10,CC1Oc2ccccc2OC1C(=O)Nc1ccc([N+](=O)[O-])cc1Cl (centres unmarked) [CBK269412],54.2951
11,CSCCCN1C(=O)CN(Cc2ccccc2)C1=O [CBK162363],56.6834
12,COCc1cc(C)n(CC(=O)Nc2ccc(N3CCOCC3)cc2)c(=O)c1C#N [CBK270190],118.408
13,COc1ccc([C@@]23CC[C@H](NC(=O)CS(=O)(=O)c4ccccc4)C[C@@H]2N(C)CC3)cc1OC [CBK036445],98.6581
14,COc1cnc(-c2cccc(C(=O)N(C)C)c2)c(NC(=O)c2ccccc2)n1 [CBK145385],97.6604
15,Cc1ccc2c(c1)CCN(S(C)(=O)=O)C21CCN(CCCOc2ccccc2)CC1 [CBK081066],66.9231
16,O=C(O)c1ccc(CNC(=O)c2ccc3c(c2)C(=O)N(CC2CCCO2)C3=O)cc1 (centres unmarked) [CBK264256],119.198
17,COC(C)CN(C)Cc1c(C)[nH]c2ccc(F)cc12 (centres unmarked) [CBK282035],96.4647
18,COc1cc(F)cc(OC2CCNCC2)c1NC(=O)c1coc2c1C(=O)CCC2 [CBK050351T],90.1627
19,CC(C)Cc1ccc(S(=O)(=O)Nc2ccc3[nH]c(=O)[nH]c3c2)cc1 [CBK270131],82.9678
20,Cc1nc2c([N+](=O)[O-])c3c(c([N+](=O)[O-])c2[nH]1)Nc1nonc1N3 [CBK261069],98.3925
21,CC(C)(CO)CCCn1cncc1-c1cnn(-c2ccccc2)c1 [CBK281922],83.3862
22,CC1CC(C)CN(Cc2csc(NC(=O)Cc3ccc(Cl)cc3)n2)C1 (centres unmarked) [CBK306142],32.0557
23,COc1ccc(-c2cc(C(=O)Nc3ccc(F)c(Cl)c3)cnc2-c2cccc(C)c2)cc1 [CBK037488],74.9706
24,CCC1CCCCN1C(=O)c1nc2ccccc2s1 (centres unmarked) [CBK076645],106.689
25,CCN1C(=O)CC2(C1=O)C(=O)N(CCc1cccs1)c1ccc(Cl)cc12 (centres unmarked) [CBK075614],75.8207
26,CCCCNc1cc(N2CCN(C(=O)COC)CC2)nc(N)n1 [CBK304078],47.8966

row,SMILES,% of control remaining
1,Fc1ccccc1COc1cccc(CNCCN2CCOCC2)c1 [CBK278148C],92.3773
2,CC(=O)Nc1ccc(NCc2csc(C3CCCO3)n2)c(C(F)(F)F)c1 (centres unmarked) [CBK304161],62.9838
3,COc1ccc(NC(=O)CSc2ncnc3c2oc2ccccc23)c(OC)c1 [CBK287395],99.4156
4,CC1=NN(c2ccc(Cl)cc2)C(=O)/C1=C\Nc1nnn[nH]1 [CBK262407],109.963
5,CC(=O)Nc1cccc(-c2nccnc2N[C@H](CO)C(C)C)c1 [CBK036611],139.363
6,C(#Cc1csc(COc2cncc(N3CCNCC3)n2)c1)c1ccccc1 [CBK200006G],99.899
7,CC(C)c1ccc(/C=C/C(=O)NCCC(N)=O)cc1 [CBK149646],92.7075
8,Cc1nnc(Nc2ccc3c(c2)nc2n3CCN(C3CCCCC3)C2)c2ccccc12 [CBK268042],118.438
9,C=CCn1c2cc(C)sc2c2cnn(CC(=O)NC(C)C)c(=O)c21 [CBK284150],83.7108
10,Cc1cc(COc2ncccc2C(F)(F)F)no1 [CBK115783],100.784
11,O=C(Nc1ccc(N2CCNCC2)c2ccccc12)c1cccnc1 [CBK036336T],90.9665
12,COCCCN1C(=O)C(O)=C(C(=O)c2ccc(C)o2)C1c1ccc(OC)cc1 (centres unmarked) [CBK264863],116.623
13,COc1ccc(N2C(=O)CC(N3CCN(C4CC(=O)N(c5ccc(OC)cc5)C4=O)CC3)C2=O)cc1 (centres unmarked) [CBK260907],97.1412
14,COC(=O)[C@H]1CCc2ccccc2N1C(=O)C(C)C [CBK285474],58.6491
15,O=C1N[C@@H]2CCN(C(=O)CCn3ccccc3=O)C[C@@H]2CCCCCOc2ccccc21 [CBK292039],109.478
16,CCN1CCC(CC(=O)NCCn2ccnc2C)CC1 [CBK281984],88.7882
17,C[C@@H]1C[C@H](C)CN(C(C(=O)O)c2c[nH]c3ccccc23)C1 (some centres unmarked) [CBK286868],78.9614
18,Cc1ccc(-c2nc3ncccc3o2)cc1NC(=O)c1ccc(-c2cccc([N+](=O)[O-])c2)o1 [CBK268548],116.794
19,CC(C)(C)OC(=O)N1CCC(Oc2ccccc2C#N)C1 (centres unmarked) [CBK003039],92.2348
20,CN1C(=O)COc2ccccc2CCCC[C@@H]2[C@H]1CCCN2C(=O)CCCn1cncn1 [CBK292182],127.066
21,O=C(c1ccc2[nH]c(=O)[nH]c2c1)N1CCCC2(CCN(Cc3ccccc3)C2)C1 (centres unmarked) [CBK137149],83.8844
22,Cc1cc(=O)[nH]c2c1c(=O)[nH]n2C1CCCCCC1 [CBK288381],73.0957
23,Cc1ccc(C(=O)NCCNS(=O)(=O)c2ccccc2)cc1 [CBK264145],118.908
24,CC(C)c1csc(NC(=O)C2CN(S(=O)(=O)c3ccc(F)cc3)C2)n1 [CBK285944],93.6792
25,Cc1nn(Cc2cccc3ccccc23)c(C)c1NC(=O)c1ccccn1 [CBK269936],95.8357
